Measurements from patent publication US4603125A, “Substituted o-phenylenediamine acridine compounds having antitumor activity” (Development Finance Corporation of New Zealand, priority 1982, dated 1986).

system: Lewis lung carcinoma; assay: Lewis lung carcinoma in vivo (increase in lifespan); details: at the stated dose (OD)
Text: LL. is the Lewis lung carcinoma.

SMILES	active, Lewis lung
CN(C)c1cc(NS(C)(=O)=O)ccc1Nc1c2ccccc2nc2ccccc12 [Compound 32]	Y (implies a significant value of drug activity at the stated dose)
CNc1cc(NC(=O)OC)ccc1Nc1c2ccc(Br)cc2nc2c(C)cccc12 [Compound 57]	Y (implies a significant value of drug activity at the stated dose)
CNc1cc(NS(C)(=O)=O)ccc1Nc1c2ccc(Cl)cc2nc2c(C)cccc12 [Compound 19]	Y (implies a significant value of drug activity at the stated dose)
CNc1cc(NS(C)(=O)=O)ccc1Nc1c2ccccc2nc2c(C)cccc12 [Compound 12]	Y (implies a significant value of drug activity at the stated dose)
CNc1cc(NS(C)(=O)=O)ccc1Nc1c2ccccc2nc2c(OC)cccc12 [Compound 13]	Y (implies a significant value of drug activity at the stated dose)
CNc1cc(NS(C)(=O)=O)ccc1Nc1c2ccc(F)cc2nc2c(C)cccc12 [Compound 18]	Y (implies a significant value of drug activity at the stated dose)
CNc1cc(NC(=O)OC)ccc1Nc1c2ccccc2nc2c(C)cccc12 [Compound 58]	Y (implies a significant value of drug activity at the stated dose)
CNc1cc(NS(C)(=O)=O)ccc1Nc1c2ccccc2nc2ccccc12 [Compound 1]	Y (implies a significant value of drug activity at the stated dose)
CNc1cc(NC(=O)OC)ccc1Nc1c2ccc(Cl)cc2nc2c(C)cccc12 [Compound 56]	Y (implies a significant value of drug activity at the stated dose)

system: P388 Leukemia; assay: P388 leukemia in vivo (increase in lifespan); details: at the stated dose (OD)

SMILES	active, P388
CNc1cc(NS(=O)(=O)c2ccccc2)ccc1Nc1c2ccccc2nc2ccccc12 [Compound 60]	Y (implies a significant value of drug activity at the stated dose)
CN(C)c1cc(NS(C)(=O)=O)ccc1Nc1c2ccccc2nc2ccccc12 [Compound 32]	Y (implies a significant value of drug activity at the stated dose)
CNc1cc(NC(=O)OC)ccc1Nc1c2ccc(Br)cc2nc2c(C)cccc12 [Compound 57]	Y (implies a significant value of drug activity at the stated dose)
CNC(=O)c1cccc2c(Nc3ccc(NS(C)(=O)=O)cc3NC)c3ccccc3nc12 [Compound 15]	Y (implies a significant value of drug activity at the stated dose)
CNc1cc(NC(=O)OC)ccc1Nc1c2ccccc2nc2cc(Br)ccc12 [Compound 55]	Y (implies a significant value of drug activity at the stated dose)
CNC(=O)c1cccc2c(Nc3ccc(NS(C)(=O)=O)cc3NC)c3ccc(Cl)cc3nc12 [Compound 23]	Y (implies a significant value of drug activity at the stated dose)
CNc1cc(NS(=O)(=O)c2ccc(N)cc2)ccc1Nc1c2ccccc2nc2cc(Br)ccc12 [Compound 63]	Y (implies a significant value of drug activity at the stated dose)
CNc1cc(NS(C)(=O)=O)ccc1Nc1c2ccccc2nc2cc(Cl)ccc12 [Compound 6]	Y (implies a significant value of drug activity at the stated dose)
CS(=O)(=O)Nc1ccc(Nc2c3ccccc3nc3ccccc23)c(NCC(O)CO)c1 (stereo not shown) [Compound 30]	Y (implies a significant value of drug activity at the stated dose)
Cc1cccc2c(Nc3ccc(NS(C)(=O)=O)cc3N(C)CCO)c3ccccc3nc12 [Compound 46]	Y (implies a significant value of drug activity at the stated dose)
CN(CCO)c1cc(NS(C)(=O)=O)ccc1Nc1c2ccccc2nc2ccccc12 [Compound 45]	Y (implies a significant value of drug activity at the stated dose)
CNc1cc(NS(C)(=O)=O)ccc1Nc1c2cccc(OC)c2nc2c(OC)cccc12 [Compound 26]	Y (implies a significant value of drug activity at the stated dose)
CNc1cc(NS(C)(=O)=O)ccc1Nc1c2ccc(Cl)cc2nc2c(C)cccc12 [Compound 19]	Y (implies a significant value of drug activity at the stated dose)
CNc1cc(NS(C)(=O)=O)ccc1Nc1c2ccccc2nc2c(C)cccc12 [Compound 12]	Y (implies a significant value of drug activity at the stated dose)
CS(=O)(=O)Nc1ccc(Nc2c3ccccc3nc3cc(Br)ccc23)c(NCCO)c1 [Compound 28]	Y (implies a significant value of drug activity at the stated dose)
CNc1cc(NS(C)(=O)=O)ccc1Nc1c2ccccc2nc2cc(NC(=O)OC)ccc12 [Compound 11]	Y (implies a significant value of drug activity at the stated dose)
CNc1cc(NS(C)(=O)=O)ccc1Nc1c2ccccc2nc2cc(OC)ccc12 [Compound 4]	Y (implies a significant value of drug activity at the stated dose)
CNc1cc(NS(C)(=O)=O)ccc1Nc1c2ccccc2nc2cc(F)ccc12 [Compound 5]	Y (implies a significant value of drug activity at the stated dose)
Nc1ccc(S(=O)(=O)Nc2ccc(Nc3c4ccccc4nc4ccccc34)c(NCCO)c2)cc1 [Compound 65]	Y (implies a significant value of drug activity at the stated dose)
CNc1cc(NS(C)(=O)=O)ccc1Nc1c2ccc(OC)cc2nc2c(C)cccc12 [Compound 17]	Y (implies a significant value of drug activity at the stated dose)
CNc1cc(NS(C)(=O)=O)ccc1Nc1c2ccc(C)cc2nc2c(C)cccc12 [Compound 16]	Y (implies a significant value of drug activity at the stated dose)
CNc1cc(NP(=O)(OC)OC)ccc1Nc1c2ccccc2nc2ccccc12 [Compound 47]	Y (implies a significant value of drug activity at the stated dose)
CNc1cc(NS(=O)(=O)c2ccc(N)cc2)ccc1Nc1c2ccccc2nc2ccccc12 [Compound 62]	Y (implies a significant value of drug activity at the stated dose)
CNc1cc(NC(=O)Oc2ccccc2)ccc1Nc1c2ccccc2nc2ccccc12 [Compound 66]	Y (implies a significant value of drug activity at the stated dose)
CNc1cc(NS(C)(=O)=O)ccc1Nc1c2ccccc2nc2cc([N+](=O)[O-])ccc12 [Compound 9]	Y (implies a significant value of drug activity at the stated dose)
CNc1cc(NS(C)(=O)=O)ccc1Nc1c2cccc(C)c2nc2c(C)cccc12 [Compound 25]	Y (implies a significant value of drug activity at the stated dose)

SMILES	active, P388
Cc1cccc2c(Nc3ccc(NS(C)(=O)=O)cc3NCC(O)CO)c3ccccc3nc12 (stereo not shown) [Compound 31]	Y (implies a significant value of drug activity at the stated dose)
CNc1cc(NS(C)(=O)=O)ccc1Nc1c2ccccc2nc2cc(Br)ccc12 [Compound 7]	Y (implies a significant value of drug activity at the stated dose)
CNc1cc(NS(C)(=O)=O)ccc1Nc1c2ccc(C)cc2nc2c(OC)cccc12 [Compound 22]	Y (implies a significant value of drug activity at the stated dose)
CNc1cc(NS(C)(=O)=O)ccc1Nc1c2ccccc2nc2c(OC)cccc12 [Compound 13]	Y (implies a significant value of drug activity at the stated dose)
CNc1cc(NC(=O)OC)ccc1Nc1c2ccccc2nc2cc(Cl)ccc12 [Compound 54]	Y (implies a significant value of drug activity at the stated dose)
CS(=O)(=O)Nc1ccc(Nc2c3ccccc3nc3ccccc23)c(NCCO)c1 [Compound 27]	Y (implies a significant value of drug activity at the stated dose)
CNc1ccc2c(Nc3ccc(NS(C)(=O)=O)cc3NC)c3ccccc3nc2c1 [Compound 10]	Y (implies a significant value of drug activity at the stated dose)
CNc1cc(NC(=O)OC)ccc1Nc1c2ccccc2nc2cc(C)ccc12 [Compound 52]	Y (implies a significant value of drug activity at the stated dose)
CNc1cc(NP(=O)(OC)OC)ccc1Nc1c2ccccc2nc2cc(Br)ccc12 [Compound 48]	Y (implies a significant value of drug activity at the stated dose)
COc1cc(NS(C)(=O)=O)ccc1Nc1c2ccccc2nc2ccccc12 [m-AMSA, 4'-(9-acridinylamino)methanesulphon-m-anisidide, reference compound]	Y (implies a significant value of drug activity at the stated dose)
O=S(=O)(Nc1ccc(Nc2c3ccccc3nc3ccccc23)c(NCCO)c1)c1ccccc1 [Compound 61]	Y (implies a significant value of drug activity at the stated dose)
CNc1cc(NS(C)(=O)=O)ccc1Nc1c2ccc(Br)cc2nc2c(C)cccc12 [Compound 21]	Y (implies a significant value of drug activity at the stated dose)
CNc1cc(NS(C)(=O)=O)ccc1Nc1c2ccccc2nc2cc(C)ccc12 [Compound 3]	Y (implies a significant value of drug activity at the stated dose)
Cc1cccc2c(Nc3ccc(NS(C)(=O)=O)cc3NCCO)c3ccccc3nc12 [Compound 29]	Y (implies a significant value of drug activity at the stated dose)
CNc1cc(NS(C)(=O)=O)ccc1Nc1c2ccc(Cl)cc2nc2c(OC)cccc12 [Compound 20]	Y (implies a significant value of drug activity at the stated dose)
CNc1cc(NS(=O)(=O)c2ccc(N)cc2)ccc1Nc1c2ccccc2nc2c(C)cccc12 [Compound 64]	Y (implies a significant value of drug activity at the stated dose)
COC(=O)Nc1ccc(Nc2c3ccccc3nc3ccccc23)c(N(C)C)c1 [Compound 59]	Y (implies a significant value of drug activity at the stated dose)
CNc1cc(NS(C)(=O)=O)ccc1Nc1c2ccccc2nc2cc(I)ccc12 [Compound 8]	Y (implies a significant value of drug activity at the stated dose)
CNc1cc(NP(=O)(OC)OC)ccc1Nc1c2ccccc2nc2c(C)cccc12 [Compound 49]	Y (implies a significant value of drug activity at the stated dose)
CNc1cc(NS(C)(=O)=O)ccc1Nc1c2ccc(F)cc2nc2c(C)cccc12 [Compound 18]	Y (implies a significant value of drug activity at the stated dose)
CNC(=O)c1cccc2c(Nc3ccc(NS(C)(=O)=O)cc3NC)c3cccc(C)c3nc12 [Compound 24]	Y (implies a significant value of drug activity at the stated dose)
CNc1cc(NC(=O)OC)ccc1Nc1c2ccccc2nc2c(C)cccc12 [Compound 58]	Y (implies a significant value of drug activity at the stated dose)
CNc1cc(NS(C)(=O)=O)ccc1Nc1c2ccccc2nc2ccccc12 [Compound 1]	Y (implies a significant value of drug activity at the stated dose)
CNc1cc(NC(=O)OC)ccc1Nc1c2ccc(Cl)cc2nc2c(C)cccc12 [Compound 56]	Y (implies a significant value of drug activity at the stated dose)
CNc1cc(NC(=O)OC)ccc1Nc1c2ccccc2nc2cc(F)ccc12 [Compound 53]	Y (implies a significant value of drug activity at the stated dose)
COC(=O)Nc1ccc(Nc2c3ccccc3nc3ccccc23)c(NCCO)c1 [Compound 51]	Y (implies a significant value of drug activity at the stated dose)
